# The list shows a part of the results. No stated cut-off is given here; in the data, active = 0.5 or less and inactive = the rest. Repeats are few or missing, and single values can be far off.
# Key:
# Conditions in all cases: 50 µM; 24 h
# [1] = system: HeLa VPS33A reporter cells; test: relative cell viability (CellMask signal) vs DMSO (fraction of DMSO); higher = less cytotoxic;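 further: primary screen of an FDA-approved drug library in HeLa reporter cells in 96-well format, CellMask signal normalized to DMSO-treated wells set as 1, under 0.5 deemed highly cytotoxic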
# [2] = system: HeLa VPS33A R498W KI + HA-SDC1-FLAG; test: relative GAG core protein HA-SDC1 amount per cell number vs DMSO (fraction of DMSO); higher = more SDC1 (GAG core protein);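 further: HA-SDC1 level read out by In-Cell Western staining with an anti-HA antibody against the N-terminal tag, screening FDA-approved library drugs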
# [3] = system: HeLa VPS33A KO + NLuc-VPS33A R498W; test: relative mutant VPS33A R498W amount (NanoLuc luminescence) vs DMSO (fraction of DMSO); HeLa model of a glycosaminoglycan (GAG) storage disease; KI is knock-in and KO knock-out; SDC1 is syndecan 1; higher = higher mutant VPS33A level;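 further: screen of an FDA-approved drug library, NanoLuc luminescence read after lysing the treated cells, taken as a measure of mutant VPS33A protein stability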
smiles,measurement,setting,value
CN1C(C(=O)Nc2ccccn2)=C(O)c2ccccc2S1(=O)=O [Piroxicam],relative cell viability,[1],1.13
same,relative GAG core protein HA-SDC1 amount per cell number,[2],inactive: 1.11
same,relative mutant VPS33A R498W amount,[3],0.952
CC1(C)NC(=O)N(c2ccc([N+](=O)[O-])c(C(F)(F)F)c2)C1=O [Nilutamide],relative cell viability,[1],1.12
same,relative GAG core protein HA-SDC1 amount per cell number,[2],inactive: 0.634
same,relative mutant VPS33A R498W amount,[3],1.08
O=C1C(=O)c2ccccc2C(O)=C1C1CCC(c2ccc(Cl)cc2)CC1 (stereo not drawn) [Atovaquone],relative cell viability,[1],1.01
same,relative GAG core protein HA-SDC1 amount per cell number,[2],active: 0.468
same,relative mutant VPS33A R498W amount,[3],0.506
Nc1nc2c(ncn2COCCO)c(=O)[nH]1 [Acyclovir],relative cell viability,[1],1.38
same,relative GAG core protein HA-SDC1 amount per cell number,[2],inactive: 0.781
same,relative mutant VPS33A R498W amount,[3],0.892
CC(=O)OCC(CCn1cnc2cnc(N)nc21)COC(C)=O [Famciclovir],relative cell viability,[1],1.03
same,relative GAG core protein HA-SDC1 amount per cell number,[2],inactive: 0.818
same,relative mutant VPS33A R498W amount,[3],1.37
O=c1c(O)c(-c2ccc(O)cc2O)oc2cc(O)cc(O)c12 [Morin],relative cell viability,[1],0.889
same,relative GAG core protein HA-SDC1 amount per cell number,[2],inactive: 0.907
same,relative mutant VPS33A R498W amount,[3],0.497
CCn1cc(C(=O)O)c(=O)c2cnc(N3CCCC3)nc21 [Piromidic Acid],relative cell viability,[1],1.08
same,relative GAG core protein HA-SDC1 amount per cell number,[2],inactive: 0.791
same,relative mutant VPS33A R498W amount,[3],0.617
CCCC1O[C@@H]2C[C@H]3[C@@H]4CCC5=CC(=O)C=C[C@]5(C)[C@H]4[C@@H](O)C[C@]3(C)[C@]2(C(=O)CO)O1 (stereo partly drawn) [Budesonide],relative cell viability,[1],1.05
same,relative GAG core protein HA-SDC1 amount per cell number,[2],inactive: 0.701
same,relative mutant VPS33A R498W amount,[3],0.725
CCC1(c2ccccc2)C(=O)NCNC1=O [Primidone],relative cell viability,[1],0.993
same,relative GAG core protein HA-SDC1 amount per cell number,[2],inactive: 0.869
same,relative mutant VPS33A R498W amount,[3],1.62
C=CC1=C(C(=O)O)N2C(=O)[C@@H](NC(=O)/C(=N\O)c3csc(N)n3)[C@H]2SC1 [Cefdinir],relative cell viability,[1],1.41
same,relative GAG core protein HA-SDC1 amount per cell number,[2],inactive: 1.31
same,relative mutant VPS33A R498W amount,[3],1.03
CCC[C@@H]1C[C@@H](C(=O)N[C@@H]([C@H]2O[C@H](SC)[C@H](O)[C@@H](O)[C@H]2O)[C@H](C)Cl)N(C)C1 [Clindamycin],relative cell viability,[1],1.03
same,relative GAG core protein HA-SDC1 amount per cell number,[2],inactive: 0.94
same,relative mutant VPS33A R498W amount,[3],1.15

# Reference: the supplement of paper PMC12355420
